Screen size: about 390,000 compounds; about 17,000 (4.4%) were called active. The shares of active, inactive and inconclusive entries below differ from those in the screen. Calls come from the whole dose curve; as a rule, active = well fitted inhibition curve with a large enough effect; inconclusive = small, poorly fitted or top-dose-only effect; inactive = no such curve, though single readings can be large or run the other way. A potency beside an inconclusive call is a rough fit, not a confirmed value.
target: Lysine-specific demethylase 4A (Homo sapiens) (UniProt O75164); test: qHTS Assay for Inhibitors of JMJD2A-Tudor Domain; settings: AlphaScreen JMJD2A-Tudor / H3K4me3 peptide binding; activity change, negative = inhibition: at 114 µM (top of the series); note: nearly all actives have a fitted effect of over 50% in size
UniProt O75164, sequence (O75164 whole entry, looked up, the tested form may be a part): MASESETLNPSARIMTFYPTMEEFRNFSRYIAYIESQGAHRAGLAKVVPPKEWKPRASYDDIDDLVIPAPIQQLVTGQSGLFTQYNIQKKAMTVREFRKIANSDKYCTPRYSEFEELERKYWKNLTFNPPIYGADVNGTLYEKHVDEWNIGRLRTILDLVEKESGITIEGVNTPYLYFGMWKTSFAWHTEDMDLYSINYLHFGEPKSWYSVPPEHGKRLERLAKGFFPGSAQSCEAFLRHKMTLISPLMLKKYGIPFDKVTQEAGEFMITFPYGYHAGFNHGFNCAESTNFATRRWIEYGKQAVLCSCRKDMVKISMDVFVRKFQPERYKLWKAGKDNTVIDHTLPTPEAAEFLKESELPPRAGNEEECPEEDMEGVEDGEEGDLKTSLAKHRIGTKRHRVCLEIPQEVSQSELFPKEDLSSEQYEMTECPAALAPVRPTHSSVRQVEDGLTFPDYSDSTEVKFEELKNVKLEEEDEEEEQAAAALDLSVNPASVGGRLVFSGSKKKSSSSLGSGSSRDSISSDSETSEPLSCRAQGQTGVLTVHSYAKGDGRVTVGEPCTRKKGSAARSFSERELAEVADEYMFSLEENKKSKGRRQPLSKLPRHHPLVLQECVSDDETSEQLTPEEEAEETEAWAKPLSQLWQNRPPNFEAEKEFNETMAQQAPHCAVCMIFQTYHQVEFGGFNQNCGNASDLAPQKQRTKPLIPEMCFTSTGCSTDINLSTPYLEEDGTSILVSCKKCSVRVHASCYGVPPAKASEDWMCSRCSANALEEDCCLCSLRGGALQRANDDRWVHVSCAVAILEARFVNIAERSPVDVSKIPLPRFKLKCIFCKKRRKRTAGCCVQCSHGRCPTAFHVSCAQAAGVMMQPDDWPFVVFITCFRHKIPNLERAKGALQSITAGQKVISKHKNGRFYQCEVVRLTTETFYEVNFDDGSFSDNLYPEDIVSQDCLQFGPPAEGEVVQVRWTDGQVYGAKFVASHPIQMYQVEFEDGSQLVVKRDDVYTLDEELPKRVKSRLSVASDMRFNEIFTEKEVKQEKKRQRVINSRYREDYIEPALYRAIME
% is set by controls: 0 for no effect and ±100 for the full control effect; potency is the fitted concentration of half-maximal effect; tags give direction and shape of the fitted curve.

Structure (SMILES)	Potency	activity change, negative = inhibition
C=CCN(C(=O)CSc1nc2c(sc3ccccc32)c(=O)n1CCN(CC)CC)c1ccccc1	inconclusive: 39.8 µM [inhibitor, partial curve]	
CCOC(=O)c1cc(-c2ccccc2)n(CCC(=O)N2CCN(c3ccccc3OC)CC2)c1C	inconclusive: 14.1 µM [inhibitor, partial curve]	
COc1ccccc1N1CCN(CCCNC(=O)c2cnn(-c3cccc(Cl)c3)c2C2CCN(C(=O)OC(C)(C)C)CC2)CC1	inconclusive: 50.1 µM [inhibitor, partial curve]	
O=C(OCc1cc2ccccc2[nH]c1=O)c1ccco1		inactive: -8.99%
O=C(C[C@@H]1C/C=C\C[C@H](NC(=O)OCC2c3ccccc3-c3ccccc32)C(=O)O[C@H](c2ccccc2)CNC1=O)NCCO	inconclusive: 56.2 µM [inhibitor, partial curve, poor fit]	
O=C(N/N=C/c1cccc([N+](=O)[O-])c1)c1cc(-c2ccc3c(c2)OCO3)n[nH]1	inconclusive: 14.1 µM [inhibitor, full curve, poor fit]	
CCOc1ccc(N(CC(=O)NCC2CCCO2)S(=O)(=O)c2ccc(C)cc2)cc1 (stereo unspecified)	inconclusive: 70.8 µM [inhibitor, partial curve]	
COc1cc(CNCc2c[nH]c3ccccc23)cc(OC)c1	active: 3.55 µM	
CC1CC2CCCC(O)=C2C(=O)O1 (stereo unspecified)		inactive: -14.3%
C=CCn1c(SCCN)nnc1-c1cccc(S(=O)(=O)N2CCOCC2)c1	active: 14.1 µM	
Cn1c(SCC(=O)Nc2nccs2)nnc1-c1ccncc1	inconclusive: 89.1 µM [inhibitor, single point]	
COc1ccc(C(=O)Nc2ccc(Nc3ccccc3)cc2)cc1[N+](=O)[O-]	active: 35.5 µM	
Nc1cc(N)nc(SCC(=O)NC(=O)NC2CCCC2)n1	inconclusive: 28.2 µM [inhibitor, partial curve]	
O=C(c1ccc(F)cc1)N1CCCCC(Sc2nnc3ccccn23)C1=O (stereo unspecified)		inactive: -9.62%
CCn1c(CNC(=O)Cc2ccc(OC)cc2)nnc1SCC(=O)c1ccccc1	inconclusive: 25.1 µM [inhibitor, full curve]	
Oc1c(C(c2ccccc2F)N2CCN(Cc3ccccc3)CC2)sc2nc(-c3ccco3)nn12 (stereo unspecified)	inconclusive: 56.2 µM [inhibitor, partial curve]	
CCCCCCCCCCCCN1[C@@H](CC(=O)O)c2cc(C(F)(F)F)ccc2S1(=O)=O	inconclusive: 89.1 µM [inhibitor, single point]	
Cc1ccc2[nH]c(=O)c(CN(Cc3ccccc3)Cc3nnnn3C3CCCC3)cc2c1	inconclusive: 63.1 µM [inhibitor, partial curve, poor fit]	
Cc1ccc(Cl)cc1NC(=O)C(C)n1nc(-c2ccccc2)ccc1=O (stereo unspecified)	inconclusive: 79.4 µM [inhibitor, partial curve]	
CC(C)Oc1ccc(C2C(C#N)=C(N)Oc3c2oc(CO)cc3=O)cc1 (stereo unspecified)		inactive: -6.01%
Cc1ccc(-n2ncc3c(NCCC4=CCCCC4)ncnc32)cc1		inactive: -8.26%
O=C(NCc1ccco1)c1sc(=S)n2c1[nH]c(=O)c1ccccc12	active: 50.1 µM	
Cc1ccc(CN2CCCN(C)CC2)c(C)c1	active: 3.16 µM	

Structure (SMILES)	Potency	activity change, negative = inhibition
Cn1cc(S(=O)(=O)c2ccccc2)c(=O)c2cc(Cl)ccc21	inconclusive: 25.1 µM [inhibitor, full curve, poor fit]	
Cc1ccc(OCc2n[nH]c(=S)n2-c2ccc(C)cc2)cc1	inconclusive: 50.1 µM [inhibitor, partial curve]	
O=C1NC(=O)/C(=C\c2ccsc2)N1	active: 31.6 µM	
COc1cccc(CN2CCN(Cc3ccc4c(NC(C)=O)cccc4n3)CC2CCO)c1 (stereo unspecified)	active: 22.4 µM	
Cc1nc(C)c(C(=O)NNS(=O)(=O)c2ccc3ccccc3c2)s1	active: 25.1 µM	
O=C(NCCCn1ccnc1)C(F)(F)C(F)(F)C(=O)NCCCn1ccnc1	inconclusive: 35.5 µM [inhibitor, single point]	
O=C(CSc1ccc(Cl)cc1)N1CCCC1	inconclusive: 14.1 µM [inhibitor, partial curve, poor fit]	
CC1CC(C)CN(C(=O)C2CCN(S(=O)(=O)N3CCC4(CC3)OCCO4)CC2)C1 (stereo unspecified)		inactive: -0.676%
CCOC(=O)C1=C(COc2ccccc2)NC(=O)NC1c1cccc([N+](=O)[O-])c1 (stereo unspecified)	inconclusive: 89.1 µM [inhibitor, partial curve, poor fit]	
C=CCn1c(-c2ccc(Cl)cc2)cnc1SC(C)C(=O)NC(N)=O (stereo unspecified)		inactive: -25.1%
COc1ccc(C2=CC(c3ccccc3Cl)n3nc(-c4ccc(Cl)cc4)nc3N2)cc1 (stereo unspecified)		inactive: -22.8%
Nc1ncnc2c1ncn2[C@@H]1O[C@H](CNC(=O)[C@@H](N)Cc2ccc(C(F)(F)F)cc2)[C@@H](O)[C@H]1O		inactive: -13%
CN1CCC(N(C)CC(O)c2ccccc2)CC1 (stereo unspecified)	active: 3.55 µM	
S=c1[nH]c2ccc(Cl)cc2s1	inconclusive: 25.1 µM [inhibitor, single point]	
O=C(COc1ccc(S(=O)(=O)NCCc2ccccc2)cc1)N1CCCC1	inconclusive: 39.8 µM [inhibitor, partial curve]	
Cc1cc(C)c(C(=O)N2CCCC(N3CCN(c4cccc(C(F)(F)F)c4)CC3)C2)o1 (stereo unspecified)	inconclusive: 44.7 µM [inhibitor, partial curve]	
Cc1ccc2c(c1)c1c(n2CC(O)Cn2c(C)nc3ccccc32)/C(=N\O)CCC1 (stereo unspecified)	inconclusive: 39.8 µM [inhibitor, partial curve]	
Cc1cccc(Nc2nnc(SCC(=O)NC(=O)CN3CCCC3=O)s2)c1		inactive: -4.05%
CCN(CC)S(=O)(=O)c1ccc(C(=O)NCCN(C)C)cc1		inactive: -7.52% [at 11.4 µM]
COC(=O)c1ccc2c(c1)C(C)(C)C(/C=C/c1ccccc1O)=[N+]2C	active: 56.2 µM	
Cc1ccc(S(=O)(=O)N2CCN(C(=O)CCN3C(=O)c4ccccc4C3=O)CC2)cc1C		inactive: -5.94%
Nc1ccc(N=Nc2ccccc2O)c(N)c1	active: 35.5 µM	
O=[N+]([O-])c1ccccc1/C=N/n1c(-c2ccccc2)n[nH]c1=S	active: 8.91 µM	

Source: PubChem BioAssay AID504339 (National Center for Advancing Translational Sciences (NCATS), 2011)
